Measurements published in ChEMBL document CHEMBL5606458, “ASAP - ZIKV NS2B-NS3 protease fluorescence single point” (2024).
In all, about 2,700 compounds went through this assay and about 160 (5.9%) showed an effect of 50% or more. The list shows a part of the results. Where a SMILES comes first, the peptide text is derived from it. The star is where a group is joined. Boc = CC(C)(C)OC(=O)*

Target: Nonstructural protein 3 (Zika virus) (UniProt A0A024AXB9)
[1] = PRVABC59, Concentration 50.0 uM, Number of replicates 1.0
[2] = PRVABC59, Concentration 15.0 uM, Number of replicates 1.0

UniProt A0A024AXB9, sequence (A0A024AXB9 as listed by the source): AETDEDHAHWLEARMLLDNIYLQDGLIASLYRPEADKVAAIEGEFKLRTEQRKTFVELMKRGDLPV

SMILES: O=Cc1ccc(N2CCC(C(=O)Nc3ncc(F)cc3Br)CC2)cc1
- inhibition [1]: 19.1%

SMILES: CC1(C)CC(=O)CC(C)(C)N1C(=O)C1CCN(c2ccc(C=O)cc2)CC1
- inhibition [1]: 25.4%

SMILES: Cc1cc(CO)c2cccc(NCc3sccc3C)c2n1
- inhibition (PRVABC59, Concentration 49.95 uM, Number of replicates 2.0, Standard deviation 0.13621007965038606 %): 0.578%
- inhibition (PRVABC59, Concentration 99.9 uM, Number of replicates 2.0, Standard deviation 0.14629971908253026 %): -1.27%

SMILES: CN(CCc1ccc([N+](=O)[O-])cc1)C(=O)c1cc(Cl)ccc1NS(=O)(=O)c1ccc(Oc2ccccc2Cl)cc1
- inhibition [2]: 11.9%

SMILES: CCOc1cc(CNC(=O)[C@]2(c3ccc(F)cc3)CCCNC2)ccc1O
- inhibition (PRVABC59, Concentration 49.5 uM, Number of replicates 2.0, Standard deviation 1.0122740724027686 %): -1.28%
- inhibition (PRVABC59, Concentration 99.01 uM, Number of replicates 2.0, Standard deviation 1.3294936869558769 %): 0.697%
- inhibition (PRVABC59, Concentration 198.0 uM, Number of replicates 2.0, Standard deviation 1.9942405146287472 %): 2.66%

SMILES: COc1cccc(CN(C(=O)c2cc(Cl)ccc2NS(=O)(=O)c2ccc(Oc3ccccc3Cl)cc2)C23CC4CC(CC(C4)C2)C3)c1
- inhibition [2]: 27.2%

SMILES: Cn1cc([C@@H](NC(=O)OCc2ccccc2)C(=O)Nc2cccc(CN)c2)cn1
- inhibition (PRVABC59, Concentration 49.5 uM, Number of replicates 2.0, Standard deviation 1.7191102708218762 %): 1.72%
- inhibition (PRVABC59, Concentration 99.01 uM, Number of replicates 2.0, Standard deviation 1.6791311190235945 %): 4.67%
- inhibition (PRVABC59, Concentration 198.0 uM, Number of replicates 2.0, Standard deviation 2.8403482765537995 %): 9.86%

SMILES: Cc1cc(CO)c2cccc(Cc3ccccc3NC(=O)c3ccc(N)nn3)c2n1
- inhibition (PRVABC59, Concentration 49.95 uM, Number of replicates 2.0, Standard deviation 1.8729957904336396 %): -1.22%
- inhibition (PRVABC59, Concentration 99.9 uM, Number of replicates 2.0, Standard deviation 1.8933541091104023 %): 6.56%

SMILES: O=C(Nc1cc(Cl)c(F)cc1F)c1cc(Cl)ccc1NS(=O)(=O)c1ccc(Oc2ccccc2Cl)cc1
- inhibition [2]: 26.5%

SMILES: CC(C)c1cc(CNC(=O)[C@]2(c3ccc(F)cc3)CCCNC2)[nH]n1
- inhibition (PRVABC59, Concentration 49.5 uM, Number of replicates 2.0, Standard deviation 3.8758354422703674 %): 3.44%
- inhibition (PRVABC59, Concentration 99.01 uM, Number of replicates 2.0, Standard deviation 0.40934620854023696 %): 3.54%
- inhibition (PRVABC59, Concentration 198.0 uM, Number of replicates 2.0, Standard deviation 1.2876270201571711 %): 2.97%

SMILES: Cn1cccc(CN2CCC(c3c[nH]c4cccnc34)CC2)c1=O
- inhibition (PRVABC59, Concentration 49.5 uM, Number of replicates 2.0, Standard deviation 0.07177165759495889 %): -0.869%
- inhibition (PRVABC59, Concentration 99.01 uM, Number of replicates 2.0, Standard deviation 0.38070186159308106 %): 1.77%
- inhibition (PRVABC59, Concentration 198.0 uM, Number of replicates 2.0, Standard deviation 0.010921765735719036 %): 3.27%

SMILES: COc1ccc(OC)c(CN2CCN(C(=O)c3cc(Cl)ccc3NS(=O)(=O)c3ccc(Oc4ccccc4Cl)cc3)CC2)c1
- inhibition [2]: 17%

SMILES: Cc1cnccc1CN1CCC(c2c[nH]c3cccnc23)CC1
- inhibition (PRVABC59, Concentration 49.5 uM, Number of replicates 2.0, Standard deviation 5.559663785413653 %): 0.299%
- inhibition (PRVABC59, Concentration 99.01 uM, Number of replicates 2.0, Standard deviation 3.2336290336723508 %): -1.65%
- inhibition (PRVABC59, Concentration 198.0 uM, Number of replicates 2.0, Standard deviation 2.7253763099694166 %): -1.24%

SMILES: Cc1[nH]c(=O)c(NC(=O)C2CCN(c3ccc(C=O)cc3)CC2)cc1Br
- inhibition [1]: 14.7%

SMILES: COCCN(C(=O)c1cc(Cl)ccc1NS(=O)(=O)c1ccc(Oc2ccccc2Cl)cc1)C1CCN(C)CC1
- inhibition [2]: 16.9%

SMILES: CSCC[C@H](NC(=O)OC(C)(C)C)C(=O)N1CCC[C@H]1C(=O)O (Boc-Met-Pro-OH)
- inhibition (PRVABC59, Concentration 49.5 uM, Number of replicates 2.0, Standard deviation 1.4430750920306277 %): -1.43%
- inhibition (PRVABC59, Concentration 99.01 uM, Number of replicates 2.0, Standard deviation 1.380895888569354 %): -2.23%
- inhibition (PRVABC59, Concentration 198.0 uM, Number of replicates 2.0, Standard deviation 1.8524213848645616 %): -1.15%

SMILES: O=C(NCCc1ccn[nH]1)c1cccc2c1NC(=O)[C@]1(CCCN1)C2
- inhibition (PRVABC59, Concentration 49.5 uM, Number of replicates 2.0, Standard deviation 0.0 %): 0.758%
- inhibition (PRVABC59, Concentration 99.01 uM, Number of replicates 2.0, Standard deviation 1.791897288144311 %): 2.31%
- inhibition (PRVABC59, Concentration 198.0 uM, Number of replicates 2.0, Standard deviation 2.54780683245229 %): 5.39%

SMILES: O=C(Nc1nc2c(Cl)cccc2s1)c1cc(Cl)ccc1NS(=O)(=O)c1ccc(Oc2ccccc2Cl)cc1
- inhibition [2]: 21.8%

SMILES: CN(C)Cc1cn(C2CN(C(=O)c3ccc4[nH]ncc4c3)C2)nn1
- inhibition (PRVABC59, Concentration 49.5 uM, Number of replicates 2.0, Standard deviation 0.4789294753199647 %): -3.5%
- inhibition (PRVABC59, Concentration 99.01 uM, Number of replicates 2.0, Standard deviation 2.1084825820906183 %): -2.89%
- inhibition (PRVABC59, Concentration 198.0 uM, Number of replicates 2.0, Standard deviation 1.9495019194256606 %): -1.3%

SMILES: O=C(Nc1cc(Cl)nc(Cl)n1)c1cc(Cl)ccc1NS(=O)(=O)c1ccc(Oc2ccccc2Cl)cc1
- inhibition [2]: 21.3%

SMILES: O=C(NCCc1c[nH]cn1)[C@@]1(c2ccc(F)cc2)CCCNC1
- inhibition (PRVABC59, Concentration 50.0 uM, Number of replicates 2.0, Standard deviation 1.8533531884648646 %): 1.12%
- inhibition (PRVABC59, Concentration 100.0 uM, Number of replicates 2.0, Standard deviation 1.243259032729753 %): 2.94%
- inhibition (PRVABC59, Concentration 200.0 uM, Number of replicates 2.0, Standard deviation 0.45116199355607794 %): 1.26%

SMILES: O=C(c1cc(Cl)ccc1NS(=O)(=O)c1ccc(Oc2ccccc2Cl)cc1)N1CCN(Cc2ccc(C(F)(F)F)cc2)CC1
- inhibition [2]: 34%

SMILES: O=Cc1ccc(N2CCC(C(=O)Nc3ccc([N+](=O)[O-])c4ccccc34)CC2)cc1
- inhibition [1]: 23.8%

SMILES: c1ccc2c([C@H]3CCN(Cc4cnns4)C3)c[nH]c2c1
- inhibition (PRVABC59, Concentration 49.5 uM, Number of replicates 2.0, Standard deviation 2.0058417718561588 %): -0.381%
- inhibition (PRVABC59, Concentration 99.01 uM, Number of replicates 2.0, Standard deviation 1.7733417166189047 %): 2.75%
- inhibition (PRVABC59, Concentration 198.0 uM, Number of replicates 2.0, Standard deviation 1.6486370311889924 %): 9.91%

SMILES: CC(C)(C)N(C[C@H](O)c1ccc(O)c(CO)c1)C(=O)C1CCN(c2ccc(C=O)cc2)CC1
- inhibition [1]: 22.6%

SMILES: O=Cc1ccc(N2CCC(C(=O)N[C@@H](Cc3ccccc3)c3ccccc3)CC2)cc1
- inhibition [1]: 5.89%

SMILES: NS(=O)(=O)c1cccc(CN2CC[C@H](c3c[nH]c4ccccc34)C2)c1
- inhibition (PRVABC59, Concentration 49.5 uM, Number of replicates 2.0, Standard deviation 2.3207736870822324 %): 1.04%
- inhibition (PRVABC59, Concentration 99.01 uM, Number of replicates 2.0, Standard deviation 2.4391372527131354 %): 7.2%
- inhibition (PRVABC59, Concentration 198.0 uM, Number of replicates 2.0, Standard deviation 2.682205208746011 %): 16.8%

SMILES: O=C(NCCSCc1ccccc1)c1cc(Cl)ccc1NS(=O)(=O)c1ccc(Oc2ccccc2Cl)cc1
- inhibition [2]: 20.5%

SMILES: COc1cc(CN2CC(O)C2)ccc1OC[C@@H](O)CN1CCC(O)CC1
- inhibition (PRVABC59, Concentration 49.5 uM, Number of replicates 2.0, Standard deviation 2.4221812383824144 %): 0.189%
- inhibition (PRVABC59, Concentration 99.01 uM, Number of replicates 2.0, Standard deviation 2.075192767353743 %): 0.785%
- inhibition (PRVABC59, Concentration 198.0 uM, Number of replicates 2.0, Standard deviation 0.11959307349566267 %): -0.75%

SMILES: COc1cccc(Cn2cc(C3CCNCC3)c(C)n2)n1
- inhibition (PRVABC59, Concentration 49.5 uM, Number of replicates 2.0, Standard deviation 0.37592932105510146 %): -1.6%
- inhibition (PRVABC59, Concentration 99.01 uM, Number of replicates 2.0, Standard deviation 0.3669357736387558 %): -1.01%
- inhibition (PRVABC59, Concentration 198.0 uM, Number of replicates 2.0, Standard deviation 1.0468461049068225 %): 0.825%

SMILES: O=C(NCc1ccccc1)c1cc(O)ccc1NS(=O)(=O)c1ccc(Oc2ccccc2Cl)cc1
- inhibition (PRVABC59, Concentration 49.5 uM, Number of replicates 2.0, Standard deviation 1.023228375505538 %): -9.7%

SMILES: O=Cc1ccc(N2CCC(C(=O)NCc3ccccc3-n3cccn3)CC2)cc1
- inhibition (PRVABC59, Concentration 10.0 uM, Number of replicates 1.0): 21.4%

SMILES: O=C(NCc1ccc(OC(F)(F)F)cc1)c1cc(Cl)ccc1NS(=O)(=O)c1ccc(Oc2ccccc2Cl)cc1
- inhibition [2]: 32.5%

SMILES: Cc1cc(CO)c2cccc(Cc3ccccc3C(=O)N3CCCNCC3)c2n1
- inhibition (PRVABC59, Concentration 99.9 uM, Number of replicates 2.0, Standard deviation 2.6741643486934055 %): -2.96%

SMILES: Cc1cc(CO)c2cccc(Cc3cccc(NC(=O)Cc4c(C)c5c(=O)[nH]n(C)c5[nH]c4=O)c3)c2n1
- inhibition (PRVABC59, Concentration 49.95 uM, Number of replicates 2.0, Standard deviation 0.9685022100006885 %): 29.7%
- inhibition (PRVABC59, Concentration 99.9 uM, Number of replicates 2.0, Standard deviation 0.32116033435216484 %): 54.1%

SMILES: CC(C)(C)N(Cc1cccnc1)C(=O)C1CCN(c2ccc(C=O)cc2)CC1
- inhibition [1]: 25%

SMILES: O=C1NCCC[C@@H]1CNS(=O)(=O)c1ccc(Oc2ccccc2Cl)cc1
- inhibition (PRVABC59, Concentration 49.5 uM, Number of replicates 2.0, Standard deviation 1.4119096470460955 %): 8.27%
- inhibition (PRVABC59, Concentration 99.01 uM, Number of replicates 2.0, Standard deviation 5.0537068848428035 %): 8.71%
- inhibition (PRVABC59, Concentration 198.0 uM, Number of replicates 2.0, Standard deviation 1.1434777175793638 %): 7.13%

SMILES: O=C(Nc1ncc(Br)cc1O)c1cc(Cl)ccc1NS(=O)(=O)c1ccc(Oc2ccccc2Cl)cc1
- inhibition [2]: 55.3%

SMILES: O=C(c1cc(Cl)ccc1NS(=O)(=O)c1ccc(Oc2ccccc2Cl)cc1)N(CCCO)Cc1ccncc1
- inhibition [2]: 12.7%

SMILES: COc1ccccc1C[C@H](C)N(C)C(=O)C1CCN(c2ccc(C=O)cc2)CC1
- inhibition [1]: 22.2%
